{"source": "paper PMC4336329", "about": "(PLoS ONE, 2015)", "note": "In all, about 310,000 compounds went through this assay and about 2,200 (0.71%) showed an effect of 50% or more. The effect is printed as a negative number. The list shows a part of the results."}
{"biological_target": "human ether-à-go-go-related gene (hERG) potassium channel (human, UniProt Q12809)", "sequence (Q12809 whole entry, looked up)": "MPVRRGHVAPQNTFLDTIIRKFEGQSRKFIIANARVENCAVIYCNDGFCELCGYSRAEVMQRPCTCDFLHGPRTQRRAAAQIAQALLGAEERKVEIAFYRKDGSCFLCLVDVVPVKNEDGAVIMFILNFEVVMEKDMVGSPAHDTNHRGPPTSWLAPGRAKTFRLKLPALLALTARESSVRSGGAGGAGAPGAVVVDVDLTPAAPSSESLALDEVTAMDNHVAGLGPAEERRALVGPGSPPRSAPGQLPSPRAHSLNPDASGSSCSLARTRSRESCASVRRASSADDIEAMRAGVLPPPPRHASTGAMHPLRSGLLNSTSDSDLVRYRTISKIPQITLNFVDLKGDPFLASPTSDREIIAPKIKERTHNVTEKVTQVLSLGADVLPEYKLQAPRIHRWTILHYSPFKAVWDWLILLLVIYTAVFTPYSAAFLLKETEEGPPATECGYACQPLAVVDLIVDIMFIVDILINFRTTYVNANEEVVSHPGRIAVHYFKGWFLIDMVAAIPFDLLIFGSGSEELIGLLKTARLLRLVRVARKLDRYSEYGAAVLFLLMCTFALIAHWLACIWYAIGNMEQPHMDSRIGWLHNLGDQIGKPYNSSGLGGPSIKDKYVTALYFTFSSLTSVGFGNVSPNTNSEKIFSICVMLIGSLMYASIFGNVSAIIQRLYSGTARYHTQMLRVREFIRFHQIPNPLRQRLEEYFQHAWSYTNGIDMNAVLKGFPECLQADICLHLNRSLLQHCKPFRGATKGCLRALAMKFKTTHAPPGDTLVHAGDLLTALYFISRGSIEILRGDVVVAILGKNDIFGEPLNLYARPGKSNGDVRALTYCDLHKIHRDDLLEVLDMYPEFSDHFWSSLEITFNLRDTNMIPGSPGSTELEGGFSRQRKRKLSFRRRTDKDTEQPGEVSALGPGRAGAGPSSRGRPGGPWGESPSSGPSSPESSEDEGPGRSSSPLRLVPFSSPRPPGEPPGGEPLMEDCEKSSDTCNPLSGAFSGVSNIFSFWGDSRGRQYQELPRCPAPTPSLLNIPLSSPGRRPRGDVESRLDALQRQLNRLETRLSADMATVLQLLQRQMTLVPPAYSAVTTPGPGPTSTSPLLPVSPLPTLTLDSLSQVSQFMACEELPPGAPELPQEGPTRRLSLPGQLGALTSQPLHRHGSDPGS", "experiment": "primary screen, population patch clamp on CHO cells stably expressing hERG", "units": {"hERG current change (%, negative = inhibition) at 1uM": "%"}}
{"smiles": "CCN(CC)c1cc(C)c2cc(NC(=O)c3ccccc3F)ccc2n1", "hERG current change (%, negative = inhibition) at 1uM": 2.87}
{"smiles": "CCn1cc(/C=C(\\NC(=O)c2ccccc2)C(=O)NCCCN2CCOCC2)c2ccccc21", "hERG current change (%, negative = inhibition) at 1uM": 11.9}
{"smiles": "O=C1c2ccccc2C(O)N1c1ccccc1", "note": "(centres unmarked)", "hERG current change (%, negative = inhibition) at 1uM": 14.1}
{"smiles": "CC(=O)Cn1c(CN2CCCCC2)nc2ccccc2c1=O", "hERG current change (%, negative = inhibition) at 1uM": 8.45}
{"smiles": "Cn1c(=O)c(-c2cc(=O)[nH][nH]2)c(O)c2ccccc21", "hERG current change (%, negative = inhibition) at 1uM": 6.26}
{"smiles": "O=C(CCN1C(=O)c2ccncc2C1=O)Nc1cc(F)ccc1F", "hERG current change (%, negative = inhibition) at 1uM": 8.86}
{"smiles": "COc1ccc(N2CCN(CC(=O)Nc3cc(C)cc(C)c3)CC2)cc1", "hERG current change (%, negative = inhibition) at 1uM": 1.64}
{"smiles": "Cc1nc(SCC(=O)NCc2ccco2)c2c(=O)n(C)c(=O)n(CC(C)C)c2n1", "hERG current change (%, negative = inhibition) at 1uM": 7.93}
{"smiles": "Cn1nnnc1SCC(=O)Nc1ccc(Oc2ccccc2)cc1", "hERG current change (%, negative = inhibition) at 1uM": -26}
{"smiles": "CCCCNC(=O)C(Cc1ccccc1)NS(=O)(=O)c1ccc2c(c1)c(=O)n(C)c(=O)n2C", "note": "(centres unmarked)", "hERG current change (%, negative = inhibition) at 1uM": 0.673}
{"smiles": "O=C(O)CCCCCNC(=O)c1ccc(C(=O)NCCCCCC(=O)O)cc1", "hERG current change (%, negative = inhibition) at 1uM": 15}
{"smiles": "Cc1ccc2nc(Cn3cc(C(F)(F)F)cc(Cl)c3=O)cc(=O)n2c1", "hERG current change (%, negative = inhibition) at 1uM": 5.76}
{"smiles": "Clc1cccc(-c2nc(NCc3cccnc3)c3ccccc3n2)c1", "hERG current change (%, negative = inhibition) at 1uM": 2.19}
{"smiles": "COC(=O)C1=C(C)N(CCCC(=O)O)C(=O)NC1c1ccc(-c2ccccc2)cc1", "note": "(centres unmarked)", "hERG current change (%, negative = inhibition) at 1uM": 11.1}
{"smiles": "CCC1=C/C(=C/c2sc3ccccc3[n+]2CC)CC(C)(C)C1.[I-]", "hERG current change (%, negative = inhibition) at 1uM": 16.1}
{"smiles": "O=C(O)[C@H](Cc1ccccc1)Nc1ccc([N+](=O)[O-])cn1", "hERG current change (%, negative = inhibition) at 1uM": 9.63}
{"smiles": "O=C1/C(=C\\c2c(NCCOCCO)nc3ccccn3c2=O)SC(=S)N1Cc1ccco1", "hERG current change (%, negative = inhibition) at 1uM": 7.5}
{"smiles": "COC(=O)c1ccccc1NC(=O)CCNC(=O)Cn1cnc2ccccc2c1=O", "hERG current change (%, negative = inhibition) at 1uM": 6.78}
{"smiles": "O=C(/C=C/c1ccccc1)CC(O)(c1ccccc1)C(F)(F)F", "note": "(centres unmarked)", "hERG current change (%, negative = inhibition) at 1uM": 8.8}
{"smiles": "C/C(Cl)=C\\CNC(C)c1ccccc1.Cl", "note": "(centres unmarked)", "hERG current change (%, negative = inhibition) at 1uM": 1.56}
{"smiles": "CCCn1c(=O)c(C(=O)OCC)c(O)c2cc(Br)ccc21", "hERG current change (%, negative = inhibition) at 1uM": 16.7}
{"smiles": "O=C(NC(=S)Nc1cc(C(F)(F)F)ccc1N1CCOCC1)c1ccco1", "hERG current change (%, negative = inhibition) at 1uM": 15.4}
{"smiles": "COCCNC(=O)c1cc(-c2ccccc2)nn1CC1CC(c2cccc([N+](=O)[O-])c2)=NO1", "note": "(centres unmarked)", "hERG current change (%, negative = inhibition) at 1uM": -9.78}
{"smiles": "Cc1ccc(S(=O)(=O)N2CCCCC2)cc1C(=O)N1CCN(CCO)CC1", "hERG current change (%, negative = inhibition) at 1uM": 5.58}
{"smiles": "Cc1cccc(OCC(=O)N(Cc2cccs2)C2CCS(=O)(=O)C2)c1C", "note": "(centres unmarked)", "hERG current change (%, negative = inhibition) at 1uM": 4.47}
{"smiles": "COc1ccc(/C=C/C(=O)OCC(=O)NC2CCCC2)cc1", "hERG current change (%, negative = inhibition) at 1uM": 6.94}
{"smiles": "CC(C)c1cc(NC(=O)CSc2nnc(-c3ccccc3F)n2C)on1", "hERG current change (%, negative = inhibition) at 1uM": 1.58}
{"smiles": "COc1ccc(-n2nc(C(=O)NCC(=O)Nc3cc(OC)c(OC)c(OC)c3)c3ccccc3c2=O)cc1Cl", "hERG current change (%, negative = inhibition) at 1uM": 13.7}
{"smiles": "O=C(NC1=NCCS1)c1cccc(N2C(=O)c3ccccc3C2=O)c1", "hERG current change (%, negative = inhibition) at 1uM": 6.67}
{"smiles": "Cc1cccn2cc(-c3ccc(S(=O)(=O)N4CCOCC4)cc3)nc12", "hERG current change (%, negative = inhibition) at 1uM": -10.1}
{"smiles": "CN=C(Nc1ccc(C(=O)OC)s1)c1ccc(Cl)cc1", "hERG current change (%, negative = inhibition) at 1uM": 6.3}
{"smiles": "CCCCNC(=O)c1ccc(N2CCOCC2)c(NS(=O)(=O)c2ccc(OC)cc2)c1", "hERG current change (%, negative = inhibition) at 1uM": -5.44}
{"smiles": "COc1ccc(/C(C)=N/NC(=S)Nc2cc(C)ccc2C)cc1", "hERG current change (%, negative = inhibition) at 1uM": -3.64}
{"smiles": "CCN(CCn1cccn1)C(=O)CC1C(=O)NCCN1Cc1cccc(OC)c1OC", "note": "(centres unmarked)", "hERG current change (%, negative = inhibition) at 1uM": 5.29}
{"smiles": "CCc1nn(CC(=O)N(C)C2CCCCC2)c(=O)c2cc3cc(C)ccc3n12", "hERG current change (%, negative = inhibition) at 1uM": 7.98}
{"smiles": "CCOC(=O)C(O)(CC(=O)Nc1cc(F)ccc1C)C(F)(F)F", "note": "(centres unmarked)", "hERG current change (%, negative = inhibition) at 1uM": 7.09}
{"smiles": "O=[N+]([O-])c1ccc(S(=O)(=O)Nc2cccc(-c3ccc(N4CCOCC4)nn3)c2)cc1", "hERG current change (%, negative = inhibition) at 1uM": -1.44}
{"smiles": "Cc1ccccc1-c1cc(C(=O)NCc2ccc3c(c2)OCO3)n(CC2CC(c3cccnc3)=NO2)n1", "note": "(centres unmarked)", "hERG current change (%, negative = inhibition) at 1uM": -2.64}
{"smiles": "COc1cc(N)c(C(=O)c2nccc3cc(OC)c(OC)cc23)cc1OC", "hERG current change (%, negative = inhibition) at 1uM": 14.7}
{"smiles": "COc1ccccc1/C=c1\\sc2nc(-c3ccccc3OC)nn2c1=O", "hERG current change (%, negative = inhibition) at 1uM": 11}
{"smiles": "COc1ccc(Nc2nc(N3CCN(C)CC3)nc3ccccc23)c(OC)c1", "hERG current change (%, negative = inhibition) at 1uM": -76.6}
{"smiles": "COc1ccc(C(=O)C(OC(=O)c2ccccc2Cl)c2ccccc2)cc1", "note": "(centres unmarked)", "hERG current change (%, negative = inhibition) at 1uM": 10}
{"smiles": "COC(=O)c1ccc(CN2C(=O)C3CCCCC3C2=O)o1", "note": "(centres unmarked)", "hERG current change (%, negative = inhibition) at 1uM": 8.41}
{"smiles": "CN(C)S(=O)(=O)c1ccc(C(=O)NCC(C)(C)N2CCOCC2)cc1", "hERG current change (%, negative = inhibition) at 1uM": 15.7}
{"smiles": "O=C1OC2(CCCCC2)OC(=O)C1=CNc1nc2ccccc2s1", "hERG current change (%, negative = inhibition) at 1uM": 10.2}
{"smiles": "CCOP(=O)(OCC)c1nc(-c2cccc([N+](=O)[O-])c2)oc1N1CCCCC1", "hERG current change (%, negative = inhibition) at 1uM": 2.09}
{"smiles": "Brc1cccc(-c2nnc3sc(CN4CCC5(CC4)OCCO5)cn23)c1", "hERG current change (%, negative = inhibition) at 1uM": -2.39}
{"smiles": "CSc1nnc2c(n1)OC(C)=Nc1ccccc1-2", "hERG current change (%, negative = inhibition) at 1uM": 5.23}
{"smiles": "CC(C)(C)c1ccc(OCC(O)CN2CCCC2)cc1.Cl", "note": "(centres unmarked)", "hERG current change (%, negative = inhibition) at 1uM": 3.51}
{"smiles": "COCc1cc(C)nc(NC2CC(C)(C)NC(C)(C)C2)c1C#N", "hERG current change (%, negative = inhibition) at 1uM": 20.3}
{"smiles": "CC(=O)Nc1sc(-c2ccccc2)nc1-c1ccccc1", "hERG current change (%, negative = inhibition) at 1uM": 17.4}
{"smiles": "Cl.O=S(=O)(NCCCN1CCOCC1)c1ccc(F)c(Cl)c1", "hERG current change (%, negative = inhibition) at 1uM": 1.93}
{"smiles": "O=C(CN(c1ccccc1)S(=O)(=O)c1ccccc1)N1CCN(Cc2ccc3c(c2)OCO3)CC1", "hERG current change (%, negative = inhibition) at 1uM": 5.44}
{"smiles": "COc1cccc(C(=O)Nc2ccc(S(=O)(=O)NCc3ccco3)cc2)c1", "hERG current change (%, negative = inhibition) at 1uM": -5.3}
{"smiles": "CCCCNC(=O)Nc1ccc(Br)cn1", "hERG current change (%, negative = inhibition) at 1uM": -5.39}
{"smiles": "Cc1ccc(-n2cccn2)c(CN2CCCC(C(=O)c3ccc4c(c3)OCO4)C2)c1", "note": "(centres unmarked)", "hERG current change (%, negative = inhibition) at 1uM": -83.5}
